Measured values published in the supplement of paper PMC7826260.
The list shows a part of the results. Each Rep nickase domain was tested in vitro on the same pool of single strands (3 µM enzyme, 1 h, 37 °C); shown is the middle of each 90-letter strand. Uncut reads are compared with the no-enzyme pool on a log2 scale; strong cutting gives strongly negative numbers. There is no active / inactive call. Reads are scaled to the total; where an enzyme cuts many sequences, the uncut ones exceed 0.

What was measured:
Experiment in all cases: uncleaved DNA left, log2 of reads against the no-enzyme library (log2 ratio); higher = less cleavage (more negative = more Rep cleavage of the k-mer); sequences stand for … in CTCGTCCG…ACCGGAGA
[1] = system: T1, Rep nickase domain of Muscovy duck circovirus
T1 sequence (protein, residues 1-111, tag omitted): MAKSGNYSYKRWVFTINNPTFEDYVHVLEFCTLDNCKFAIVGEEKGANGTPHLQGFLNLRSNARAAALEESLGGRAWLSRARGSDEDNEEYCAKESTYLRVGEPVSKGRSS
Protocol: (§1)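 A pool of 90-nt single-stranded DNAs with seven random bases just before the constant AC of the nick site (name = the seven bases) was cut by 3 µM recombinant His6-SUMO-tagged Rep nickase domain (300 nM DNA, 50 mM HEPES pH 8.0, 50 mM NaCl, 1 mM MnCl2, 1 h, 37 °C, three replicates). Uncut DNA was amplified and sequenced.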

[2] = system: T2, Rep nickase domain of banana bunchy top virus
T2 sequence (protein, residues 1-94, tag omitted): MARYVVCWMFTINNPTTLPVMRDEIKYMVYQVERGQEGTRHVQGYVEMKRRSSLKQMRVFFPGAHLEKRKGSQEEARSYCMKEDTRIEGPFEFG
Protocol: as §1

[3] = system: T3, Rep nickase domain of cabbage leaf curl virus
T3 sequence (protein, residues 1-116, tag omitted): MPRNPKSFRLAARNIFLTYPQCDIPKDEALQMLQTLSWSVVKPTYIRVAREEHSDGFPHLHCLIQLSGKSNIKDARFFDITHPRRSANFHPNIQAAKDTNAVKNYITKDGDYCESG
Protocol: as §1

[4] = system: T4, Rep nickase domain of chickpea chlorotic dwarf virus
T4 sequence (protein, residues 1-124, tag omitted): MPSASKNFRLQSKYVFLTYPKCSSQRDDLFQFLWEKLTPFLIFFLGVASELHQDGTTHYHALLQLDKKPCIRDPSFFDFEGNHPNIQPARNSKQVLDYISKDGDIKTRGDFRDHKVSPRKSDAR
Protocol: as §1

[5] = system: T5, Rep nickase domain of faba bean necrotic yellows virus
T5 sequence (protein, residues 1-98, tag omitted): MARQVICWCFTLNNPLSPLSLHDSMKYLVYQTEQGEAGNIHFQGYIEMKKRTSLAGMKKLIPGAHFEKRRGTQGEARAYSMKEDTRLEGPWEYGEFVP
Protocol: as §1

[6] = system: T6, Rep nickase domain of maize striate mosaic virus
T6 sequence (protein, residues 1-117, tag omitted): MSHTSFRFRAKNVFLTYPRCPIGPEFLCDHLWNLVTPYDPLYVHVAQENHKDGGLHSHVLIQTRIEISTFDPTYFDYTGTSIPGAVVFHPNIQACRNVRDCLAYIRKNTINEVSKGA
Protocol: as §1

[7] = system: T7, Rep nickase domain of porcine circovirus 2
T7 sequence (protein, residues 2-116, tag omitted): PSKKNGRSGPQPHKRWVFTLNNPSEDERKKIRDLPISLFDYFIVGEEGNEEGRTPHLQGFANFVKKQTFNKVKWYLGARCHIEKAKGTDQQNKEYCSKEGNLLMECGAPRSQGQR
Protocol: as §1

[8] = system: T8, Rep nickase domain of tomato golden mosaic virus
T8 sequence (protein, residues 1-124, tag omitted): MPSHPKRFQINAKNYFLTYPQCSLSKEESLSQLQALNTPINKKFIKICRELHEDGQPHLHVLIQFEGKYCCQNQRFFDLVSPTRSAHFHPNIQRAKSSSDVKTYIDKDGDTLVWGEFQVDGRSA
Protocol: as §1

[9] = system: T9, Rep nickase domain of tomato yellow leaf curl virus
T9 sequence (protein, residues 1-136, tag omitted): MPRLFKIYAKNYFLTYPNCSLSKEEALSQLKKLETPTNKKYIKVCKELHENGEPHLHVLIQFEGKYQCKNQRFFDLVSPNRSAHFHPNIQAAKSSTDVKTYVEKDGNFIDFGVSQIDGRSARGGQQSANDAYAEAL
Protocol: as §1

[10] = system: T10, Rep nickase domain of wheat dwarf virus
T10 sequence (protein, residues 1-137, tag omitted): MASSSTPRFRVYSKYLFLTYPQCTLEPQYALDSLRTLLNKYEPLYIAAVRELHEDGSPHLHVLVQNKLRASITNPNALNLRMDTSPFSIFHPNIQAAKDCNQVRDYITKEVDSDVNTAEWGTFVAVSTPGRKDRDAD
Protocol: as §1

Sequence | uncleaved DNA left (log2) [1] | uncleaved DNA left (log2) [2] | uncleaved DNA left (log2) [3] | uncleaved DNA left (log2) [4] | uncleaved DNA left (log2) [5] | uncleaved DNA left (log2) [6] | uncleaved DNA left (log2) [7] | uncleaved DNA left (log2) [8] | uncleaved DNA left (log2) [9] | uncleaved DNA left (log2) [10]
TTCCCCG | -0.133 | -0.185 | -0.82 | -0.177 | -0.00253 | -0.998 | -0.231 | -0.0893 | -0.155 | -0.221
AGTCAAA | 0.124 | 0.0901 | 0.189 | 0.52 | -0.00671 | -0.0069 | -0.476 | 0.216 | 0.0533 | 0.165
CGTGCTG | -0.0979 | -0.226 | -0.108 | 0.544 | -0.0613 | 1.25 | -0.0885 | -0.142 | -0.154 | -0.147
GCCTCCA | -0.0528 | 0.00594 | 0.124 | -0.0349 | -0.0119 | 0.436 | -0.0744 | -0.0124 | -0.157 | -0.0542
ACAAACT | -0.0976 | -0.149 | -0.572 | -3.21 | -0.0775 | -1.11 | -0.154 | -0.0631 | -0.155 | -0.116
ATGTATA | -0.174 | -0.186 | -0.252 | -1.79 | -0.169 | -0.532 | -0.606 | -0.16 | -0.137 | -0.17
ACCATAC | 0.0218 | 0.0449 | -0.383 | -0.782 | 0.0915 | -1.02 | 0.17 | 0.0838 | 0.00934 | -0.0152
AGGTTGA | -0.00348 | -0.0166 | -0.0278 | 0.228 | 0.0631 | 0.00712 | 0.103 | 0.0652 | -0.0367 | -0.0637
